# Paper PMC4336329 (PLoS ONE, 2015)
# About 14,000 (4.5%) of roughly 310,000 compounds showed an effect of 50% or more. Effects have a minus sign here. This is one part of the list.
# Biological target: human ether-à-go-go-related gene (hERG) potassium channel (human, UniProt Q12809)
# Experiment: primary screen, population patch clamp on CHO cells stably expressing hERG
# 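Further: peak tail current of the secondary pulse compared with the same well before compound.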
# human ether-à-go-go-related gene (hERG) potassium channel, sequence (Q12809 whole entry, looked up): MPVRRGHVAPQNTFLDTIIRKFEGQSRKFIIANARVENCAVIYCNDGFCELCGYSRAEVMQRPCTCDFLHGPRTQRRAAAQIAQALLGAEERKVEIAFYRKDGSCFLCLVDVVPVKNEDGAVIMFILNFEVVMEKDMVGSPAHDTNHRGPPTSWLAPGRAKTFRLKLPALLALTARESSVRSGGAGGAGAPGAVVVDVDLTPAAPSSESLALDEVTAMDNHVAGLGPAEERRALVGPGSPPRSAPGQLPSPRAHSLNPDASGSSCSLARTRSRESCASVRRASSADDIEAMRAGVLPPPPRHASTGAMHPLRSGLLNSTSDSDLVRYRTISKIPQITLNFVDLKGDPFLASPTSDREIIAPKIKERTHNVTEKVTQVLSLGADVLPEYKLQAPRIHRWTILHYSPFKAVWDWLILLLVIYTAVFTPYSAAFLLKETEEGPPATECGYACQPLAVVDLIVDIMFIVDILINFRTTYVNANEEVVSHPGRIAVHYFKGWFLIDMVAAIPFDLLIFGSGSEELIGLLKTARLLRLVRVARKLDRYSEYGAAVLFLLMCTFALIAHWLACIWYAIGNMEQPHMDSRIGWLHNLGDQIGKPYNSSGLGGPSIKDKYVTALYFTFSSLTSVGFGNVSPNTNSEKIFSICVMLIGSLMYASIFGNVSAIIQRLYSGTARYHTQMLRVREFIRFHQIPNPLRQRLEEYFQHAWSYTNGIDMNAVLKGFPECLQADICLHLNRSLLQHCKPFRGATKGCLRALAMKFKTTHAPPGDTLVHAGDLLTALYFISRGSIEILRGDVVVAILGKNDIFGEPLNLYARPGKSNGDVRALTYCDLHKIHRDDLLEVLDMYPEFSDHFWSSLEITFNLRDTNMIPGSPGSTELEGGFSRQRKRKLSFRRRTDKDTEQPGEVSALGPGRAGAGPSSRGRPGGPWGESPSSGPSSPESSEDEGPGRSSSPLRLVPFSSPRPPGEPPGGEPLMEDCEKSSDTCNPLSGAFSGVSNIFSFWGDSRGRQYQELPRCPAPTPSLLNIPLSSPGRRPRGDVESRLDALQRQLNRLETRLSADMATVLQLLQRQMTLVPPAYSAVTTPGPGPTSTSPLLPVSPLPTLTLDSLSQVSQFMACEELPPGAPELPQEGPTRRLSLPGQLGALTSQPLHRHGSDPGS
row,Compound,"hERG current change (%, negative = inhibition) at 10uM"
1,Cc1cc(/C=C2\SC(=O)NC2=O)c(C)n1-c1ccc(N(C)C)cc1,-4.47%
2,O=c1c(-c2ccnn2-c2ccccc2F)cnc2n1CCS2,-2.56%
3,O=C(CN1C(=O)NC2(CCCC2)C1=O)NCCC1=CCCCC1,9.47%
4,O=S1(=O)CCO[C@H]2Cc3ccccc3[C@H]2N1Cc1ccc(Cl)cc1,1.62%
5,O=C(Nc1cc(S(=O)(=O)N2CCCCCC2)ccc1OCC(F)(F)F)c1cnccn1,7.43%
6,O=c1cc(O)nc(-c2ccccc2)s1,22.3%
7,CCCC(=O)Nc1ccc(N2CCN(S(C)(=O)=O)CC2)cc1,1.49%
8,COc1cc(C(=O)NCCOC(=O)c2cccc(N(C)C)c2)cc(OC)c1OC,8.97%
9,CCCCn1c(N)c(S(=O)(=O)c2ccc(C)cc2)c2nc3ccccc3nc21,-0.298%
10,CCOC(=O)CSc1nc(=O)n2cc(C)ccc2n1,8.24%
11,c1ccc2c3c(ccc2c1)OCC1CONC31 (centres unmarked),22%
12,COc1ccc(C(=O)N/C(=C\c2cn(C)c3ccccc23)C(=O)N2CCN(C)CC2)cc1OC,-3.26%
13,Cc1nn(CC(=O)Nc2ccc(Cl)cn2)c(C)c1Br,-2.04%
14,COc1cc(Cl)ccc1OCc1cc(C(=O)N2CCCCCC2)no1,4.67%
15,COC(=O)c1ccccc1NC(=O)C1CCC(=O)N1S(=O)(=O)c1ccc(C)cc1 (centres unmarked),-6.52%
16,COc1ccccc1NC(=O)CSc1nc2ccccc2n1C(C)=O,-14%
17,COc1ccc(C(=O)Nc2nc(-c3ccc(S(=O)(=O)N4CCOCC4)cc3)cs2)cc1,-6.46%
18,Cc1ccc2sc(N(CCN(C)C)C(=O)c3ccc(S(=O)(=O)N4CC(C)OC(C)C4)cc3)nc2c1C.Cl (centres unmarked),1.87%
19,O=C(CCc1nnc(-c2ccc(-c3ccccc3)cc2)o1)NCCc1ccccn1,-25.7%
20,CCOc1ccc(-c2nc(S(=O)(=O)c3ccccc3)c(NC)o2)cc1,13.2%
21,O=C(CSc1nc(=O)n(CCN2CCOCC2)c2c1CCCC2)Nc1ccc([N+](=O)[O-])cc1,-67.6%
22,COc1ccc(OC)c(NC(=O)/C=C/c2ccccc2[N+](=O)[O-])c1,-15%
23,COc1ccc(N(CC(=O)Nc2cccc(F)c2)S(=O)(=O)c2c(C)[nH]c(=O)[nH]c2=O)cc1,22.8%
